Reference: PubChem BioAssay (NCATS)
The shares of active, inactive and inconclusive entries below differ from those in the screen. Where the call is inconclusive, the potency comes from a doubtful curve fit. The source made the active and inactive calls. Calls come from the whole dose curve; as a rule, active = well fitted inhibition curve with a large enough effect; inconclusive = small, poorly fitted or top-dose-only effect; inactive = flat fitted curve, though single readings scatter.
Potency is the fitted concentration of half-maximal effect; tags give direction and shape of the fitted curve.

What follows are compounds tested against Flap endonuclease 1 (Homo sapiens) (UniProt P39748) (assay: qHTS Assay for the Inhibitors of FEN1: Confirmatory Assay for Cherry-picked Compounds (AID 720498; note: nearly all actives have a fitted effect of over 60% in size)). Details: FEN1 flap cleavage, TAMRA/BHQ2 fluorogenic DNA substrate.
Sequence of UniProt P39748 (P39748 whole entry, looked up, the tested form may be a part): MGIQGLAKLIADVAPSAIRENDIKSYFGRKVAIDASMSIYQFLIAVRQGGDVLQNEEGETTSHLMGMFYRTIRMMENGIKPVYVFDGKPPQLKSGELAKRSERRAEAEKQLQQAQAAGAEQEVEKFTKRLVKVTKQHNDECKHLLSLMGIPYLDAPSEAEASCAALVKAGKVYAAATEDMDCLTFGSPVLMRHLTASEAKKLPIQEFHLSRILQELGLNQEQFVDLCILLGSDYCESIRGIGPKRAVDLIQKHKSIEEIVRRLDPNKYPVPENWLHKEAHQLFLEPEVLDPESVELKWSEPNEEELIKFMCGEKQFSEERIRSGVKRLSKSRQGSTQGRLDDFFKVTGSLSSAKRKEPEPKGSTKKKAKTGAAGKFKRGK
Source text: The major human flap endonuclease FEN1 is an efficient structure-specific enzyme that recognizes and cleaves a 5'-unannealed DNA flap. It belongs to the RAD2 family nucleases, which are involved in DNA metabolism and are highly conserved in prokaryotes and eukaryotes. FEN1 is a key enzyme in DNA replication, repair and maintenance of genomic stability. 5'-flap removal by FEN1 is critical for Okazaki fragment processing during lagging strand DNA synthesis, long-patch base excision repair (LP BER), and regulating or facilitating recombination events. […] Cells from fen1-/- blastocysts show increased apoptotic cell death after ionizing radiation treatment, and chicken cells lacking the fen1 gene are hypersensitive to DNA alkylating agents, e.g. methylmethane sulfonate (MMS) and N-methyl-N'-nitro-N-nitrosoguanidine (MNNG), as well as hydrogen peroxide. […] Elevation of FEN1 in hormone refractory human prostate cancer cells also correlates with resistant to various anticancer agents including ionizing radiation, doxorubicin, paclitaxel and vinblastine. […] This assay is used to confirm the activity of selected compounds against the human Fen1. Inhibition is the desired outcome for this screen. NIH Chemical Genomics Center [NCGC] NIH Molecular Libraries Probe Centers Network [MLPCN] MLPCN Grant: MH092154 Assay Submitter (PI): David Wilson, National Institute of Aging
Three uL of reagents (buffer in column 3 and 4 as negative control and 10 nM FEN1 in columns 1, 2, and 5-48) were dispensed into 1,536-well black solid-bottomed plate. Compounds (23 nL) were transferred via Kalypsys pin tool equipped with 1536-pin array (10 nL slotted pins, V&P Scientific, San Diego, CA). The plates were then incubated for 15 min at room temperature, and 1 uL substrate (50 nM final concentration) were added to start the reaction read twice at 0 min read and 15 min on ViewLux reader equipped with 525 nm excitation and 598 nm emission filters. Throughout the screen, reagent bottle and all liquid lines were chilled and made light-tight to minimize reagent degradation. FEN1 Substrate. All oligodeoxynucleotides were purchased from Biosearch Technologies, Inc., (Novato, CA). Double-stranded DNA substrate containing double flap strands for fluorogenic assay was prepared from three oligodeoxynucleotides: quencher (5'-TCACCCTCGTACGACTCATCCAAAAAAGC - BHQ2), flap (5'-Tamra-GC AAAAAATTTATTCATCAACTGACATCTCCTAC) and template (5'-GT AGGAGATGTCAGTTGATGAATTGAGTCGTACGAGGGTGA-3') strand by annealing. The 5' end of the downstream flap strand was labeled with 6-carboxytetramethyl rhodamine (6-TAMRA) as the fluorophore donor, whereas the 3' end of the quencher flap strand was labeled with a Black Hole Quencher-2 (BHQ-2) as the matching quencher.
`COc1ccc(S(=O)(=O)Nc2cc(Sc3ncn[nH]3)c(O)c3ccccc23)cc1` was tested, and the Potency was inconclusive: 84.9 µM [inhibitor, partial curve]. `Cc1ccc(NC(=O)CN2C(=O)S/C(=C\c3ccc(OCC(=O)O)c(Br)c3)C2=O)cc1` was tested, and the Potency was inconclusive: 67.5 µM [inhibitor, partial curve]. With `O=C1COc2ccc(C(=O)COC(=O)/C=C/c3ccc(Br)o3)cc2N1` the Potency was inconclusive: 75.7 µM [inhibitor, partial curve]. For `CCN(CC)Cc1cc2[nH]c3c4ccc(Cl)cc4ncc3c2cc1OC`, the Potency was inconclusive: 42.6 µM [inhibitor, partial curve]. In the case of `NS(=O)(=O)c1ccc(CCNC(=O)c2ccc3nccnc3c2)cc1`, the Potency is reported as inconclusive: 84.9 µM [inhibitor, single point]. For `CCN1/C(=C\c2ccc3cc(C)ccc3[n+]2CC)Sc2cc(C)c(C)cc21`, the Potency was active: 8.49 µM. For `Oc1ccc(CCNc2c3ccccc3nc3ccccc23)cc1O`, the Potency was active: 3.01 µM. With `Cc1cccc(N/N=C/c2ccc(O)c(O)c2O)c1` the Potency was inconclusive: 42.6 µM [inhibitor, partial curve]. For `Cc1ccsc1/C=N/NC(=O)C(N)=O`, the Potency was inconclusive: 33.8 µM [inhibitor, partial curve]. With `O=C(NC(c1ccco1)c1cc(Cl)c2cccnc2c1O)c1ccsc1` (stereo not given) the Potency was inconclusive: 42.6 µM [inhibitor, partial curve]. `O=C(O)c1ccc(N2C(=O)CSC2=S)cc1` was tested, and the Potency was inconclusive: 47.8 µM [inhibitor, partial curve]. In the case of `COc1cc([N+](=O)[O-])ccc1NC(=O)Nc1cnccn1`, the Potency is reported as inconclusive: 84.9 µM [inhibitor, single point]. In the case of `O=[N+]([O-])c1ccc2c([N+](=O)[O-])ccc3c2c1CC3`, the Potency is reported as inconclusive: 67.5 µM [inhibitor, partial curve]. In the case of `CC(C1SC(=S)NC1=O)C1SC(=S)NC1=O` (stereo not given), the Potency is reported as inconclusive: 42.6 µM [inhibitor, partial curve]. For `CCOc1cc(-c2ccc3c(c2)OCO3)cc(=[O+]CC)c2c(C)oc(C)c12`, the Potency was inconclusive: 67.5 µM [inhibitor, partial curve]. With `O=C(CSc1ccsc1[N+](=O)[O-])NCc1ccccc1` the Potency was inconclusive: 95.3 µM [inhibitor, single point]. For `N=C1/C(=C\c2ccc(-c3ccc(C(=O)O)cc3)o2)C(=O)N=C2SC=C(c3ccccc3)N12`, the Potency was inconclusive: 84.9 µM [inhibitor, partial curve]. `COc1cc2c(Cc3ccccc3)cncc2cc1O` was tested, and the Potency was inconclusive: 84.9 µM [inhibitor, single point]. `Cc1ccc2oc(=O)c3cc(C(=O)NCCCN4CCCCCC4)sc3c2c1` was tested, and the Potency was inconclusive: 30.1 µM [inhibitor, partial curve]. `CCCN(CCC)CCCNC(=O)c1cc2c(-c3ccc(Cl)cc3)nn(C)c2s1` was tested, and the Potency was inconclusive: 42.6 µM [inhibitor, partial curve]. For `COc1cccc2c1C(=O)c1c(O)c3c(c(O)c1C2=O)CC(O)(C(C)=O)CC3OC1CC(O)C(O)C(C)O1` (stereo not given), the Potency was active: 84.9 µM. For `COc1ccc(N)c2c1C(=O)c1ccccc1C2=O`, the Potency was active: 75.7 µM. `CC1CCN(CCCNC(=O)c2cc3c(Cl)nc4ccccc4c3s2)CC1` was tested, and the Potency was inconclusive: 37.9 µM [inhibitor, partial curve]. With `O=C1c2ccccc2-c2onc3ccc(N4CCCC4)c1c23` the Potency was active: 37.9 µM. With `COCCCNC(=O)c1cccn2c(=O)c3cc4ccccc4cc3nc12` the Potency was inconclusive: 23.9 µM [inhibitor, full curve]. `COc1cc(NS(=O)(=O)c2ccc(NC(=S)NC(=O)c3sc4cc(F)ccc4c3Cl)cc2)nc(OC)n1` was tested, and the Potency was inconclusive: 75.7 µM [inhibitor, partial curve]. `CC(=O)c1cccc(NC(=O)c2cccc(N3C(=O)c4ccccc4C3=O)c2)c1` was tested, and the Potency was inconclusive: 67.5 µM [inhibitor, partial curve]. For `COc1cc(/C=C2\SC(=S)N(NC(=O)c3ccccc3OC)C2=O)ccc1O`, the Potency was inconclusive: 33.8 µM [inhibitor, partial curve]. In the case of `COc1ccc(NC(=O)COC(=O)c2ccc([N+](=O)[O-])o2)cc1Cl`, the Potency is reported as active: 21.3 µM. `CN(C)CCOC(=O)c1ccc2[nH]c3c(c2c1)CSCC3` was tested, and the Potency was active: 84.9 µM. In the case of `COc1cc(/C=C/c2nc3ccccc3c(=O)[nH]2)cc(Cl)c1O`, the Potency is reported as inconclusive: 67.5 µM [inhibitor, partial curve]. For `CCn1cc(C(=O)O)c(=O)c2cc(F)c(N/N=C/c3ccccc3[N+](=O)[O-])cc21`, the Potency was active: 7.57 µM. For `Cn1nc(-c2ccc(OCC(=O)Nc3ccc(Cl)cc3)cc2)c2ccccc2c1=O`, the Potency was active: 33.8 µM. `Cc1nc2ccccc2c(=O)n1/N=C/c1ccc(O)c(O)c1O` was tested, and the Potency was active: 10.7 µM. With `OCCCNc1c2ccccc2nc2ccccc12` the Potency was active: 21.3 µM. For `Cc1cc2oc3ccc(NCCC4CCCN4C)cc3c(=O)c2cc1C` (stereo not given), the Potency was inconclusive: 37.9 µM [inhibitor, partial curve]. With `CCN(CCCNc1cc2c(c(N)c1S(=O)(=O)O)C(=O)c1ccccc1C2=O)c1ccccc1` the Potency was inconclusive: 75.7 µM [inhibitor, partial curve]. `O=C(O)c1ccc(-c2ccc(/C=c3/sc4nc5ccccc5n4c3=O)o2)cc1Cl` was tested, and the Potency was inconclusive: 67.5 µM [inhibitor, partial curve]. In the case of `COc1cc(NC(=O)c2cc3c(C)nc4ccccc4c3o2)cc(OC)c1OC`, the Potency is reported as inconclusive: 33.8 µM [inhibitor, partial curve]. `Nc1ccc2nc(-c3cccc(-c4nc5ccc(N)cc5[nH]4)n3)[nH]c2c1` was tested, and the Potency was active: 1.69 µM.
